Source: PubChem BioAssay AID280 (DTP/NCI, 2004)
Inconclusive results and toxic doses are left out. Not every entry of the source has a single result; some have several. The list is limited to them. There may be further records. Values given together are repeats across runs, samples, wells, individuals or studies.

Tested on: nude mice, LOX melanoma ip, survival T/C
Assay: NCI In Vivo Anticancer Drug Screen. Data for tumor model Human Amelanotic Melanoma (LOX) (intraperitoneal) in NU/NU BALB/C (nude) mice
Settings: endpoint: median survival time, higher = longer survival
Procedure: The antitumor activity of compounds was measured in mice bearing transplantable tumors. Survival or tumor size were measured and the results are expressed as the measurement made in the treated group (T) divided by the measurement made in the vehicle treated control group (C). The tumor model used in this assay is Human Amelanotic Melanoma (LOX) (intraperitoneal) in NU/NU BALB/C (nude) mice

In the case of `Cn1cc(C2NC(=O)c3ccccc3N2)c2ccccc21` (stereo not drawn), the T/C (dose: 600.0 mg/kg/injection, schedule: Q04DX003 (ip), vehicle: Klucel (hydroxypropylcellulose) (HPC)) is reported as 106 % of control and 161 % of control and the T/C (dose: 1200.0 mg/kg/injection, schedule: Q04DX003 (ip), vehicle: Klucel (hydroxypropylcellulose) (HPC)) is reported as 93 % of control and 320 % of control.
With `COc1c(O)cc2c(c1OC)-c1ccc(SC)c(=O)cc1C(NC(C)=O)CC2` (stereo not drawn) the T/C (dose: 1.25 mg/kg/injection, schedule: Q04DX003 (ip), vehicle: Klucel (hydroxypropylcellulose) (HPC)) was 118 % of control and 152 % of control and the T/C (dose: 2.5 mg/kg/injection, schedule: Q04DX003 (ip), vehicle: Klucel (hydroxypropylcellulose) (HPC)) was 106 % of control and 152 % of control.
With `CC(O)CCC(=O)c1ccoc1` (stereo not drawn) the T/C (dose: 18.0 mg/kg/injection, schedule: Q01DX001 (ip), vehicle: propolene glycol) was 107 % of control, 121 % of control, 151 % of control.
With `O=C1C=CC(=CC=C2C=CN(CCCCCCCCCCCO)C=C2)C=C1` the T/C (dose: 167.0 mg/kg/injection, schedule: Q04DX003 (ip), vehicle: saline with Tween-80) was 120 % of control and 172 % of control and the T/C (dose: 278.0 mg/kg/injection, schedule: Q04DX003 (ip), vehicle: saline with Tween-80) was 114 % of control and 162 % of control.
For `CN=C(NC)c1ccc(NC(=O)/C=C\c2ccc(/C=C/C(=O)Nc3ccc(C(=NC)NC)cc3)cc2)cc1`, the T/C (dose: 6.25 mg/kg/injection, schedule: Q04DX003 (ip), vehicle: Klucel (hydroxypropylcellulose) (HPC)) was 105 % of control and 184 % of control.
In the case of `CN=C(N)N/N=C(\C)c1ccc2oc3ccc(/C(C)=N/NC(N)=NC)cc3c2c1`, the T/C (dose: 50.0 mg/kg/injection, schedule: Q04DX003 (ip), vehicle: Klucel (hydroxypropylcellulose) (HPC)) is reported as 97 % of control, 108 % of control, 158 % of control.
For `CCCCCCCCCCCCCCCCCCOCC(CO)OC` (stereo not drawn), the T/C (dose: 75.0 mg/kg/injection, schedule: Q04DX003 (ip), vehicle: saline with Tween-80) was 120 % of control and 171 % of control.
In the case of `CC(/C=C/C=C/C=C/C=C/C=C/C(O)=C1/C(=O)C(CCC(=O)O)N(C)C1=O)=C\C(C)C(OC1CC(O)C(O)C(C)O1)C(C)C` (stereo not drawn), the T/C (dose: 64.0 mg/kg/injection, schedule: Q04DX003 (ip), vehicle: water) is reported as 121 % of control and 187 % of control.
`CC(=O)NC(CCc1ccc(Cl)c(Cl)c1)c1cccc(O)c(=O)c1` (stereo not drawn) was tested, and the T/C (dose: 144.0 mg/kg/injection, schedule: Q04DX003 (ip), vehicle: Klucel (hydroxypropylcellulose) (HPC)) was 105 % of control and 153 % of control.
`Cc1c(O)/c(=C\O)c2nc3c(=O)ccc(C(=O)NCCN(C)C)c3[nH]c2c1=O` was tested, and the T/C (dose: 200.0 mg/kg/injection, schedule: Q04DX003 (ip), vehicle: water) was 116 % of control and 169 % of control.
